Experimental data reported in patent publication US20240209078A1 (Amgen, published 2024).
Blank lines part the entries; values can stand above or below the binder they belong to.

Experiments:
Assay in all cases: cell-based or functional assay
human CDH3 [1] = target: T1, human CDH3 (human, UniProt P22223 108-829)
human MSLN [2] = target: T2, human MSLN (human, UniProt Q13421 37-598)
human CDH3 [3] = target: T1, human CDH3; remark: listed apart in the source
human MSLN [4] = target: T2, human MSLN; remark: listed apart in the source
CD3ε chain = CD3ε chain (human, UniProt P07766 23-126, limits assumed)
Sequence of CD3ε chain (P07766 23-126 limits assumed): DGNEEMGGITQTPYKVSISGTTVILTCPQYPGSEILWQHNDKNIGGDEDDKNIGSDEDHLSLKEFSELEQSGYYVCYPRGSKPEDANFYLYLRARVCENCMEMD

[5] = target: T3, human CLL1 (C-type lectin-like receptor, CLEC12A, MICL) (human, UniProt Q5QGZ9 1-265)
T3 sequence (looked up): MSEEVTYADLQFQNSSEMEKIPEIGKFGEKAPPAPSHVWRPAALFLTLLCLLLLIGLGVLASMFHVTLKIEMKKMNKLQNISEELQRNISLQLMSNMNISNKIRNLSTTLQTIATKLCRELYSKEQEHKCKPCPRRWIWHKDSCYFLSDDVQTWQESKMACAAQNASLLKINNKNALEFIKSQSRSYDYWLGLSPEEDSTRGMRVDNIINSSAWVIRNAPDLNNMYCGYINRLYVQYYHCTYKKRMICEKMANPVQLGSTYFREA

[6] = target: human FLT3 (Fms like tyrosine kinase 3, CD135) (human, UniProt P36888 27-993)
human CDH3 [7] = target: T1, human CDH3; remark: listed apart in the source
human MSLN [8] = target: T2, human MSLN; remark: listed apart in the source
human CDH3 [9] = target: T1, human CDH3; remark: listed apart in the source
human MSLN [10] = target: T2, human MSLN; remark: listed apart in the source

- fold gap of column 2 (HCT 116 KO MSLN by Table 46) against double positive cells (human CDH3 [3]): 56 fold
- fold gap of column 6 (HCT 116 KO CDH3 by Table 46) against double positive cells (human MSLN [4]): 46 fold
B1: MS 15-B12 CC×I2L×(G4S)3×scFc×(G4S)3×CH3 26-E5 CC×I2L (bispecific antibody)
chain: QVQLQESGPGLVKPSETLSLTCTVSGGSISSSSYFWGWIRQPPGKCLEWIGNIYYSGSSNYNPSLKSRVTISVDTSKNQFSLKLSSVTAADTAVYYCARLPRGDRDAFDIWGQGTMVTVSSGGGGSGGGGSGGGGSDIVMTQSPSSLSASVGDRVTITCRASQGISNYLAWYQQKPGKVPKLLIYAASTLQSGVPSRFSGSGSGTDFTLTISSLQPEDFATYYCQQSYSTPFTFGCGTKVEIKSGGGGSEVQLVESGGGLVQPGGSLKLSCAASGFTFNKYAMNWVRQAPGKGMEWVARIRSKYNNYATYYADAVKDRFTISRDDSKNTLYLQMNNLKTEDTAVYYCVRAGNFGSSYISYFAYWGQGTLVTVSSGGGGSGGGGSGGGGSQTVVTQEPSLTVSPGGTVTITCGSSTGAVTSGNYPNWIQKKPGQAPRGLIGGTKFLAPGTPARFSGSLEGGKAALTLSGVQPEDEAEYYCVLYYSNRWVFGSGTKLTVLGGGGSGGGGSGGGGS[sequence of human IgG1 Fc with R292C N297G V302C (EU numbers) omitted]GGGGSGGGGSGGGGSGGGGSGGGGSGGGGS[sequence of human IgG1 Fc with R292C N297G V302C (EU numbers) omitted]GGGGSGGGGSGGGGSQVQLVQSGAEVKKPGASVKVSCKASGYTFTSYWMHWVRQAPGQCLEWMGVIRTSTSYTIYNQKFKGRVTMTRDTSTSTVYMELSSLRSEDTAVYYCARSGPGYFDVWGQGTMVTVSSGGGGSGGGGSGGGGSDIQLTQSPSFLSASVGDRVTITCRASENIYSYLAWYQQKPGKAPKLLIYNAKTLAEGVPSRFSGSGSGTEFTLTISSLQPEDFATYYCQHNYGTPYTFGCGTKLEIKSGGGGSEVQLVESGGGLVQPGGSLKLSCAASGFTFNKYAMNWVRQAPGKGMEWVARIRSKYNNYATYYADAVKDRFTISRDDSKNTLYLQMNNLKTEDTAVYYCVRAGNFGSSYISYFAYWGQGTLVTVSSGGGGSGGGGSGGGGSQTVVTQEPSLTVSPGGTVTITCGSSTGAVTSGNYPNWIQKKPGQAPRGLIGGTKFLAPGTPARFSGSLEGGKAALTLSGVQPEDEAEYYCVLYYSNRWVFGSGTKLTVL
- EC50 on HCT 116 KO MSLN (cytotoxicity; cells CDH3+, MSLN-) (human CDH3 [1]): 71 pM
- EC50 on HCT 116 wt (cytotoxicity; cells CDH3+, MSLN+) (human CDH3 [1]): 1.27 pM
- EC50 on HCT 116 KO CDH3 (cytotoxicity; cells CDH3-, MSLN+) (human MSLN [2]): 58.5 pM
- EC50 on HCT 116 wt (cytotoxicity; cells CDH3+, MSLN+) (human MSLN [2]): 1.27 pM
- EC50 (cytotoxicity) on double positive cells; column head printed 'EC50 CHO hu CDH3 (+) & MSLN (+)'; value is that of HCT 116 wt in Table 46 (human CDH3 [3]): 1.27 pM
- EC50 (cytotoxicity); column head printed 'EC50 CHO hu MSLN (+)', table title HCT 116; value is that of HCT 116 KO MSLN in Table 46 (human CDH3 [3]): 71 pM
- EC50 (cytotoxicity) on double positive cells; column head printed 'EC50 CHO hu CDH3 (+) & MSLN (+)'; value is that of HCT 116 wt in Table 46 (human MSLN [4]): 1.27 pM
- EC50 (cytotoxicity); column head printed 'EC50 CHO hu CDH3 (+)', table title HCT 116; value is that of HCT 116 KO CDH3 in Table 46 (human MSLN [4]): 58.5 pM

- Activity reduction of single CD3 binding domain in molecule compared to high affinity binding domain I2C with KD 1.2E-08M (CD3ε chain): ~6 fold
B2: CL1 9-G4 CC × 4F10.03mut × scFc × FL 4-E9 CC × 4F10.03mut (bispecific antibody)
chain: QVQLVQSGAEVKKPGASVKVSCKASGYTFTDYYMHWVRQAPGQCLEWMGWINPNSGGPNYAQKFQGRVTMTRDTSISTAHMELSRLRSDDTAVYYCAREKHAVAGIGFDYWGQGTLVTVSSGGGGSGGGGSGGGGSDIQMTQSPSSVSASVGDRVTITCQASQDISNYLNWYQQKPGKAPKLLIYAASSLESGVPSRFSGSGSGTDFTLTISSLQPEDFATYYCQQANSFPLTFGCGTKVDIKSGGGGSEVQLVESGGGLVQPGGSLKLSCAASGFTFNKYAMNWVRQAPGKGMEWVARIRSKYNNYATYYADAVKDRFTISRDDSKNTLYLQMNNLKTEDTAVYYCVRAGNFGKSYISYWAYWGQGTLVTVSSGGGGSGGGGSGGGGSQTVVTQEPSLTVSPGGTVTIT[sequence of about 80 residues omitted]FGSGTKLTVLGGGGSGGGGSGGGGS[sequence of human IgG1 Fc with R292C N297G V302C (EU numbers) omitted]GGGGSGGGGSGGGGSGGGGSGGGGSGGGGS[sequence of human IgG1 Fc with R292C N297G V302C (EU numbers) omitted]GGGGSGGGGSGGGGSQVTLKESGPTLVKPTETLTLTCTVSGFSFRNARMGVSWIRQPPGKCLEWLAHIFSNDEKSYSTSLKSRLTISKDTSKSQVVLTMTNMDPVDTATYFCARVPEYSSGWYRFDYWGQGTLVTVSSGGGGSGGGGSGGGGSDIQMTQSPSSLSASVGDRVTISCRASQSIRSYLNWYQQKPGKAPKLLIYATSSLQGGVPSRFSGSGSGTDFTLTISSLQPEDFATYYCQQSYSTPFTFGCGTKVEIKSGGGGSEVQLVESGGGLVQPGGSLKLSCAASGFTFNKYAMNWVRQAPGKGMEWVARIRSKYNNYATYYADAVKDRFTISRDDSKNTLYLQMNNLKTEDTAVYYCVRAGNFGKSYISYWAYWGQGTLVTVSSGGGGSGGGGSGGGGSQTVVTQEPSLTVSPGGTVTIT[sequence of about 80 residues omitted]FGSGTKLTVL
- cytotoxicity EC50, CHO huCLL1 cells [5]: 261 pM
- cytotoxicity EC50, CHO huFLT3 cells [6]: 428 pM

- fold gap, CHO hu CDH3 (+) against CHO hu CDH3 (+) & MSLN (+) (human CDH3 [7]): 779 fold
B3: MS 01-G11 CC×6H10.09×(G4S)3×scFc×(G4S)3×CH3 005-D5 CC×6H10.09 (bispecific antibody)
chain: QVQLVESGGGLVKPGGSLRLSCAASGFTFSDYYMTWIRQAPGKCLEWLSYISSSGSTIYYAEAVKGRFTISRDNAKNSLFLQMNSLRAEDTAVYYCARDRNSHFDYWGQGTLVTVSSGGGGSGGGGSGGGGSDIMTQSPSSVSASVGDRVTITCRASQGIRTWLAWYQQKPGKAPKLLIYGASGLQSGVPSRFSGSGSGTDFTLTISSLQPEDFATYYCQQAESFPRTFGCGTKVEIKSGGGGSEVQLVESGGGLVQPGGSLKLSCAASGFTFNKYAMNWVRQAPGKGMEWVARIRSKYNNYATYYADAVKDRFTISRDDSKNTLYLQMNNLKTEDTAVYYCVRAGNFGSSYISYFAYWGQGTLVTVSSGGGGSGGGGSGGGGSQTVVTQEPSLTVSPGGTVTITCGSSTGAVTSGNYPNWIQKKPGQAPRGLIGGTKFLAPGTPARFSGSLEGGKAALTLSGVQPEDEAEYYCVLYYSNRWVFGSGTKLTVLGGGGSGGGGSGGGGS[sequence of human IgG1 Fc with R292C N297G V302C (EU numbers) omitted]GGGGSGGGGSGGGGSGGGGSGGGGSGGGGS[sequence of human IgG1 Fc with R292C N297G V302C (EU numbers) omitted]GGGGSGGGGSGGGGSEVQLLESGGGLVQPGGSLRLSCAASGFSFSSYPINWVRQAPGKCLEWVGVIWTGGGTNYASSVKGRFTISRDNSKNTVYLQMNSLRAEDTAVYYCAKSRGVYDFKGRGAMDYWGQGTLVTVSSGGGGSGGGGSGGGGSDIVMTQSPDSLAVSLGERATINCKSSQSLLYSSNQKNYFAWYQQKPGQPPKLLIYWASTRESGVPDRFSGSGSGTDFTLTISSLQAEDVAVYYCQQYYSYPYTFGCGTKLEIKSGGGGSEVQLVESGGGLVQPGGSLKLSCAASGFTFNKYAMNWVRQAPGKGMEWVARIRSKYNNYATYYADAVKDRFTISRDDSKNTLYLQMNNLKTEDTAVYYCVRAGNFGSSYISYFAYWGQGTLVTVSSGGGGSGGGGSGGGGSQTVVTQEPSLTVSPGGTVTITCGSSTGAVTSGNYPNWIQKKPGQAPRGLIGGTKFLAPGTPARFSGSLEGGKAALTLSGVQPEDEAEYYCVLYYSNRWVFGSGTKLTVL
- EC50 CHO hu CDH3 (+) & MSLN (+) (cytotoxicity) (human CDH3 [7]): 0.002 pM
- EC50 CHO hu CDH3 (+) (cytotoxicity) (human CDH3 [7]): 1.9 pM
- EC50 CHO hu CDH3 (+) & MSLN (+) (cytotoxicity) (human MSLN [8]): 0.002 pM
- EC50 CHO hu MSLN (+) (cytotoxicity) (human MSLN [8]): 2.05 pM

- fold selectivity gap, GSU KO MSLN against GSU wt (human CDH3 [9]): 84 fold
- fold selectivity gap, GSU KO CDH3 against GSU wt (human MSLN [10]): 138 fold
B4: MS 15-B12 CC × I2L × G4 × scFc × G4 × CH3 15-E11 CC × I2L (SEQ ID NO: 1078) (bispecific antibody)
chain: QVQLQESGPGLVKPSETLSLTCTVSGGSISSSSYFWGWIRQPPGKCLEWIGNIYYSGSSNYNPSLKSRVTISVDTSKNQFSLKLSSVTAADTAVYYCARLPRGDRDAFDIWGQGTMVTVSSGGGGSGGGGSGGGGSDIVMTQSPSSLSASVGDRVTITCRASQGISNYLAWYQQKPGKVPKLLIYAASTLQSGVPSRFSGSGSGTDFTLTISSLQPEDFATYYCQQSYSTPFTFGCGTKVEIKSGGGGSEVQLVESGGGLVQPGGSLKLSCAASGFTFNKYAMNWVRQAPGKGMEWVARIRSKYNNYATYYADAVKDRFTISRDDSKNTLYLQMNNLKTEDTAVYYCVRAGNFGSSYISYFAYWGQGTLVTVSSGGGGSGGGGSGGGGSQTVVTQEPSLTVSPGGTVTITCGSSTGAVTSGNYPNWIQKKPGQAPRGLIGGTKFLAPGTPARFSGSLEGGKAALTLSGVQPEDEAEYYCVLYYSNRWVFGSGTKLTVLGGGGSGGGGSGGGGS[sequence of human IgG1 Fc with R292C N297G V302C (EU numbers) omitted]GGGGSGGGGSGGGGSGGGGSGGGGSGGGGS[sequence of human IgG1 Fc with R292C N297G V302C (EU numbers) omitted]GGGGSGGGGSGGGGSQVQLVQSGAEVKKPGASVKVSCKASGYTFTNYWMNWVRQAPGQCLEWMGNIAYGVKGTNYNQKFQGRVTMTVDTSSSTAYMELSRLRSDDTAVYYCATRYFYVMDYWGQGTLVTVSSGGGGSGGGGSGGGGSDIQMTQSPSSLSASVGDRVTITCRASQDISNYLNWYQQKPGKVPKLLIYYTSRLHSGVPSRFSGSGSGTDFTLTISSLQPEDVATYYCVQYAQFPLTFGCGTKVEIKSGGGGSEVQLVESGGGLVQPGGSLKLSCAASGFTFNKYAMNWVRQAPGKGMEWVARIRSKYNNYATYYADAVKDRFTISRDDSKNTLYLQMNNLKTEDTAVYYCVRAGNFGSSYISYFAYWGQGTLVTVSSGGGGSGGGGSGGGGSQTVVTQEPSLTVSPGGTVTITCGSSTGAVTSGNYPNWIQKKPGQAPRGLIGGTKFLAPGTPARFSGSLEGGKAALTLSGVQPEDEAEYYCVLYYSNRWVFGSGTKLTVL
- EC50 GSU KO MSLN (cytotoxicity; cells CDH3+, MSLN-) (human CDH3 [9]): 177 pM
- EC50 GSU KO CDH3 (cytotoxicity; cells CDH3-, MSLN+) (human MSLN [10]): 289 pM
